In article PMC4336329 (PLoS ONE, 2015):
The whole screen tested about 310,000 compounds, of which about 14,000 (4.5%) showed an effect of 50% or more. The effect is printed as a negative number. The list shows a part of the results.

These compounds were tested against human ether-à-go-go-related gene (hERG) potassium channel (human, UniProt Q12809) (assay: primary screen, population patch clamp on CHO cells stably expressing hERG).
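Also: peak tail current of the secondary pulse compared with the same well before compound.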

human ether-à-go-go-related gene (hERG) potassium channel, sequence (Q12809 whole entry, looked up): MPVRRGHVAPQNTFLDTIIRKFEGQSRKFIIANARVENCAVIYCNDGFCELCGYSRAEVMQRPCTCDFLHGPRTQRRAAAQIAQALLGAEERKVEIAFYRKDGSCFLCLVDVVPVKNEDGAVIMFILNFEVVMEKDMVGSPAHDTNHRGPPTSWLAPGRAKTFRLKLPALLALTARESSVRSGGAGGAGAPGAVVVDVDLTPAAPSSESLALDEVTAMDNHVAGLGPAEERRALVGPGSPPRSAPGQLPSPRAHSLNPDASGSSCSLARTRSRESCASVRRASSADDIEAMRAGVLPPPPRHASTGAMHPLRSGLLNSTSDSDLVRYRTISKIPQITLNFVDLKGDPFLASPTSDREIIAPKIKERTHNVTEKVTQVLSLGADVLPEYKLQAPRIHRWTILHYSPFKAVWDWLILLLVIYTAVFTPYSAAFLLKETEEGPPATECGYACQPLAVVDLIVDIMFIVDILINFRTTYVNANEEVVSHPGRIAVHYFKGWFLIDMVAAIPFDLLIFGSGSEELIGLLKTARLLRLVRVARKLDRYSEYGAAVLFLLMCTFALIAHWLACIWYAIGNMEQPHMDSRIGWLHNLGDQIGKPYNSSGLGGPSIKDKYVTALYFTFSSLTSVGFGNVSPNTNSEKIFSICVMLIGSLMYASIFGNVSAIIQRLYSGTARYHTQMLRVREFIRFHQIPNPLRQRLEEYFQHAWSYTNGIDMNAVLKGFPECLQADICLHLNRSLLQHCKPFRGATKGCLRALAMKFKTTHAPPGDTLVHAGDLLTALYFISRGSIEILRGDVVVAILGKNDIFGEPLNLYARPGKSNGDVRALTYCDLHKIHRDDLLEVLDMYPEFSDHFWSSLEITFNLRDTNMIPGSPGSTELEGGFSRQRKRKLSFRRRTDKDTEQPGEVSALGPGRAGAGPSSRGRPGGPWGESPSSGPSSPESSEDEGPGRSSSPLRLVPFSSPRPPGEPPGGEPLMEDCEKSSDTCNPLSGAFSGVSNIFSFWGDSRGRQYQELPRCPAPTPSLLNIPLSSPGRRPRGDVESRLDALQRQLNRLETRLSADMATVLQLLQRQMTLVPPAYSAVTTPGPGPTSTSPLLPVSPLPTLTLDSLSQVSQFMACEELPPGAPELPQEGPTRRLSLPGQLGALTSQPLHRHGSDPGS

First: O=C1NCC(O)=C1C=NC12CC3CC(CC(C3)C1)C2 [4246017]
Second: CC1=C(C(=O)Nc2cccc(C(=O)NC3CCCC(C)C3C)c2)SCCO1 (stereo not shown)
The “hERG current change (%, negative = inhibition) at 10uM” value of the first is higher: 12.6% for the first, -20.9% for the second.

Going from `Cc1ccc(Nc2c(F)c(F)c(F)c(F)c2C(=O)O)cc1` to `CCO.Cc1ccc(NC(=O)c2sc3nc(N)c(C#N)cc3c2N)cc1`, the “hERG current change (%, negative = inhibition) at 10uM” value falls from 13.8% to -14.1%.

Going from `O=C(COc1nncc2ccccc12)NCCC1=CCCCC1` to `CN(C)C(=O)Oc1ccc2ccccc2c1Cl`, the “hERG current change (%, negative = inhibition) at 10uM” value falls from 0.595% to -8.69%.

First: COc1ccc(C(C#N)c2ccc(Cl)nn2)cc1 (stereo not shown)
Second: COc1ccc(N=C2NC(=O)/C(=C/C=C/c3ccccc3)S2)cc1
The “hERG current change (%, negative = inhibition) at 10uM” value of the first is lower: -2.07% for the first, 14% for the second.

Compared with `O=C(Nc1ccccc1C(F)(F)F)Nc1cccc2ccccc12`, `CC(=O)Nc1c(-c2ccccc2)nc2ccc(Cl)cn12` is higher in “hERG current change (%, negative = inhibition) at 10uM” value: 1.48% for the first, 5.29% for the second.

First: COC(=O)N/N=C(\C)c1cccc(C(F)(F)F)c1
Second: COc1ccccc1C(=O)N(NC(=O)Oc1ccccc1)C(C)(C)C
The “hERG current change (%, negative = inhibition) at 10uM” value of the first is lower: -13.2% for the first, 16.5% for the second.

First: CCO[C@@H]1OC(C(N)=O)=C[C@H](C(C)(C)C)[C@H]1CCCO
Second: CCN(C(=O)COC(=O)Cn1cnc2c1c(=O)n(C)c(=O)n2C)C1CCS(=O)(=O)C1 (stereo not shown)
The “hERG current change (%, negative = inhibition) at 10uM” value of the first is higher: 18.9% for the first, 7.26% for the second.

First: COc1cc(C(=O)NNC(=O)C2CCC2)cc(OC)c1OC
Second: COc1ccc(OC)c(C(=O)NC(CC(N)=O)c2ccc(N3CCC(N4CCCCC4)CC3)c([N+](=O)[O-])c2)c1 (stereo not shown)
The “hERG current change (%, negative = inhibition) at 10uM” value of the first is lower: -7.32% for the first, 8.2% for the second.

Compared with `CCOC(=O)c1cn(CC(=O)Nc2ccccc2C(=O)OCC)nn1`, `CC(C)CNC(=O)COc1ccccc1[N+](=O)[O-]` is higher in “hERG current change (%, negative = inhibition) at 10uM” value: -9.76% for the first, 9.7% for the second.

Going from `Cc1cc(N2CCN(C(=O)c3ccco3)CC2)n2ncnc2n1` to `O=C(c1cc(Br)ccc1Cl)N1CCN(c2ccc(N3CCOCC3)nn2)CC1`, the “hERG current change (%, negative = inhibition) at 10uM” value rises from -30.3% to -17.4%.

Compared with `Br.COC(=O)C1=CCCN(C)C1`, `COc1ccc2oc(C(=O)OCC(=O)N3CCCCC3)c(C)c2c1` is higher in “hERG current change (%, negative = inhibition) at 10uM” value: -4.13% for the first, 8.71% for the second.

Compared with `Cc1ccc(-c2c(C)sc(NC(=O)C3C4CCC(O4)C3C(=O)O)c2C(=O)OC(C)C)cc1` (stereo not shown), `CC(C)(C)OC(=O)N1CCN(C(=O)OCC2c3ccccc3-c3ccccc32)CC1C(=O)O` (stereo not shown) is higher in “hERG current change (%, negative = inhibition) at 10uM” value: 2.21% for the first, 17.7% for the second.

Compared with `O=C(CSc1nnc2ccccn12)Nc1ncc(Cl)cc1Cl`, `CC(=O)NC1C(=O)N=C(SCC(=O)Nc2cccc(Cl)c2)NC1=O` (stereo not shown) is higher in “hERG current change (%, negative = inhibition) at 10uM” value: 0.122% for the first, 13% for the second.

Compared with `CCc1ccc2oc(C(=O)Nc3nonc3CC)c(C)c2c1`, `Cc1ccc(C(=O)N/N=C/c2c[nH]c3ccccc23)o1` is lower in “hERG current change (%, negative = inhibition) at 10uM” value: 22.5% for the first, 12.5% for the second.

Going from `O=C(NCCc1ccccc1)C1(S(=O)(=O)c2ccc(Cl)cc2)CC1` to `CC(C)CCN1C(=O)c2ccc(C(=O)Nc3ccccn3)cc2C1=O`, the “hERG current change (%, negative = inhibition) at 10uM” value rises from 6.29% to 9.58%.

Going from `O=c1cc(N2CCN(c3ccc(F)cc3)CC2)[nH]c(=O)n1C1CCCCC1` to `Cc1ccc(C2=CC(=O)C[C@H](c3ccc(F)cc3)C2)cc1`, the “hERG current change (%, negative = inhibition) at 10uM” value rises from -4.71% to 19.4%.

Going from `CC(COc1cccc2ccccc12)CN1CCN(C)CC1` (stereo not shown) to `CN1CCN(CCNC(=O)Nc2ccc([N+](=O)[O-])cc2)CC1`, the “hERG current change (%, negative = inhibition) at 10uM” value rises from -30.1% to -25.7%.

Compared with `c1ccc(-c2nnc(NC3=NCCC3)o2)cc1`, `O=C(Nc1ccc2c(c1)oc1ccccc12)N1CCOCC1` is lower in “hERG current change (%, negative = inhibition) at 10uM” value: 31.3% for the first, -9.91% for the second.

Going from `CCNC(=S)N(CCN(CC)CC)Cc1cc2cc3c(cc2[nH]c1=O)OCO3` to `CCN(CCn1cccn1)C(=O)CC1C(=O)NCCN1Cc1ccc(OC)c(OC)c1` (stereo not shown), the “hERG current change (%, negative = inhibition) at 10uM” value rises from 0.779% to 4.47%.

Going from `Cc1ccc(C(=O)n2nc(-c3cccnc3)nc2N)cc1` to `Cn1c(-c2ccc3ccccc3n2)nc2cnccc21`, the “hERG current change (%, negative = inhibition) at 10uM” value falls from 12.5% to -6%.

First: COc1ccc(CNC(=O)/C=C/c2ccco2)cc1OC
Second: O=C(COc1ccc(Br)cc1)Nc1ccc(Cc2ccncc2)cc1
The “hERG current change (%, negative = inhibition) at 10uM” value of the first is higher: 1.27% for the first, -35.6% for the second.

Going from `CC(C)C(=O)Nc1nnc(CCN(CCc2nnc(NC(=O)C(C)C)s2)[N+](=O)[O-])s1` to `CC(C)c1cc(C(C)C)c(S(=O)(=O)NNC(=O)c2ccncc2)c(C(C)C)c1`, the “hERG current change (%, negative = inhibition) at 10uM” value falls from 5.19% to -24.9%.

Going from `COCCCn1nnnc1SCC(=O)Nc1ccc2c(c1)OCCO2` to `Cc1cccc(-n2ncc3c(N(CCO)CCO)ncnc32)c1`, the “hERG current change (%, negative = inhibition) at 10uM” value rises from -2.04% to 8.3%.
